# The list shows a part of the results. Values were computed here from the reads of four pooled replicates and scatter widely.
# Target: T1, Pho4 (S. cerevisiae) (UniProt P07270)
# T1 sequence: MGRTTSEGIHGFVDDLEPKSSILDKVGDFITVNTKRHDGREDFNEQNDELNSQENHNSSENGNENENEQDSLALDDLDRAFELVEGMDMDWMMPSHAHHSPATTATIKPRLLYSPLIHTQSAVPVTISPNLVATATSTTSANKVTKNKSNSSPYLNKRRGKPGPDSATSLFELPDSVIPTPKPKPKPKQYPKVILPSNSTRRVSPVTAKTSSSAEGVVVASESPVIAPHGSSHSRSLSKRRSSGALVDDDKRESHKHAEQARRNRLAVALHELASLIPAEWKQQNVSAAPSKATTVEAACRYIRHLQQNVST
# Assay: relative binding free energy (BET-seq); higher = weaker binding
# Conditions: reference: library average
row,Sequence,relative binding free energy [kJ/mol]
1,GGAAACACGTGCTGTT,0.46
2,TCGGTCACGTGGAGGA,0.377
3,AGTGGCACGTGGAATA,-0.335
4,TCGTTCACGTGGTGTC,1.46
5,GTTTGCACGTGTTTCG,0.795
6,ATAGACACGTGTTCTG,0.0837
7,CATGGCACGTGGTTGG,-0.837
8,TTAGCCACGTGTTGTT,-0.209
9,AGTTGCACGTGTTTAC,0.544
10,GGTGACACGTGTTTCT,0.209
11,TGGCTCACGTGTGTTG,0.795
12,TGATGCACGTGTCAGG,0.0418
13,ATAATCACGTGGACGT,0.753
14,TGATCCACGTGTCGGG,0.167
15,ATTGTCACGTGAAGTC,0.837
16,TGGAACACGTGTGATT,0.293
17,TATTGCACGTGTTTGG,0.502
18,GTTGGCACGTGGTGAA,-0.377
19,GTGCGCACGTGGCGGA,-0.586
20,ATGGCCACGTGTGTAT,-0.293
21,ATGTTCACGTGGATTA,0.711
22,TTACTCACGTGTTATG,0.879
23,ATGTACACGTGATGTA,0.251
24,TGCGGCACGTGATGGC,0.418
25,AGGAGCACGTGTAGCG,-0.251
26,GTATTCACGTGAGTCT,1.17

row,Sequence,relative binding free energy [kJ/mol]
1,ATTGACACGTGTGTTG,-0.0418
2,AGTGACACGTGTTGGC,0.0418
3,ATGAGCACGTGAATGA,0.586
4,AGTATCACGTGACGGG,0.544
5,TTTTTCACGTGTACAT,0.753
6,TGGGCCACGTGATGTA,0.209
7,TGAGGCACGTGAGAGT,0.753
8,CGATACACGTGTATGG,0.418
9,TGACGCACGTGGTATT,-0.293
10,TGTGACACGTGGGTGG,-0.293
11,GTCGGCACGTGGGTCA,-0.879
12,GGTTTCACGTGTTTAG,1.42
13,TCTAACACGTGGGGTA,-1.09
14,TTCATCACGTGTATTG,0
15,TGATACACGTGGAATG,0.502
16,TGGCTCACGTGGAGGC,1.3
17,GATAACACGTGTTAGG,0.0418
18,TTTGACACGTGTAGTA,0.293
19,GAGTGCACGTGGGGGA,-0.418
20,AAATACACGTGGTTGT,-0.167
21,GGTTCCACGTGCTGTG,0.377
22,TTCTACACGTGTAGAG,0.753
23,AGGAACACGTGAGGAG,0.879
24,ATGGTCACGTGTTTAT,0.586
25,AGGAACACGTGAGGTA,1.09
26,CTAAACACGTGGGGTG,-0.711

row,Sequence,relative binding free energy [kJ/mol]
1,TTGTGCACGTGTATTA,-0.126
2,TCGAGCACGTGTTGAT,0.46
3,AGAAGCACGTGAGGTG,0.544
4,TTCCACACGTGTGGGG,0.502
5,TTACTCACGTGGTTGG,1.17
6,AGTTTCACGTGGTGAT,1.21
7,AGGTTCACGTGATTGG,1.76
8,GGAATCACGTGGAGGT,1.34
9,TTTGGCACGTGGAGTG,-0.293
10,ACTTTCACGTGTTAGT,1.09
11,GTATTCACGTGTCGGC,0.795
12,TGGTACACGTGATTTA,0.502
13,ATAGACACGTGGGAGG,-0.46
14,GGGTTCACGTGTCATT,1
15,TTTTTCACGTGCATCG,1.72
16,AGCGTCACGTGCGGTG,-0.46
17,TACGGCACGTGTGATT,-0.209
18,GGACTCACGTGGTGTG,0.586
19,TGGTGCACGTGATTAC,0.502
20,CGATGCACGTGAAGGT,0.92
21,GGGTGCACGTGGAGTA,0.0418
22,TTTGACACGTGTCCGG,0.418
23,AGGGTCACGTGTGTCT,0.962
24,GTTAACACGTGTTCGT,0.377
25,GTTAGCACGTGAGGGG,0.879
26,AAGTTCACGTGAATTG,1.13

row,Sequence,relative binding free energy [kJ/mol]
1,AGAGGCACGTGTACGT,-0.251
2,CAGTTCACGTGTGGGA,1.13
3,ATAGGCACGTGATGTT,0.167
4,TGTTTCACGTGTTGAA,1.09
5,TGGGACACGTGGCAGG,-0.251
6,GGTTGCACGTGAGAGC,1.13
7,GTCTACACGTGTGGTA,-0.0837
8,GTTTACACGTGTGATA,0.837
9,TCAGGCACGTGGGTGT,-1.21
10,GCTGGCACGTGAGGTA,0.544
11,ATATTCACGTGTTTTG,0.586
12,CGTAGCACGTGTGGCT,-0.293
13,AACGTCACGTGAGTGG,0.795
14,CTTGACACGTGTGAGT,0.377
15,AGTTACACGTGCGTTA,0.293
16,GATTTCACGTGGGCAT,1
17,AGTGGCACGTGTGGCA,-0.0837
18,TAGGACACGTGTGGAA,0.502
19,TGTTACACGTGGGTTC,-0.167
20,GTTTACACGTGGGGAG,0.418
21,TAGTTCACGTGTTCTG,1.26
22,TTCGACACGTGGGCGT,-0.335
23,CCGGTCACGTGGGATG,-0.126
24,ACGTTCACGTGTAAAT,1.8
25,AATTGCACGTGGGACG,-0.837
26,GAGAACACGTGTTTGG,-0.126

row,Sequence,relative binding free energy [kJ/mol]
1,TAGTTCACGTGAGCGT,1.55
2,TTGACCACGTGGAAGG,0.293
3,TCGGTCACGTGGAAGG,0.795
4,GCGGGCACGTGGAGTT,-0.377
5,TTGTTCACGTGTGGTA,1.63
6,TCTGACACGTGGGAGT,0
7,ATATGCACGTGGGGGG,-0.837
8,GGGGACACGTGATTTA,1.26
9,ATCTTCACGTGAGGGT,1.59
10,GGATGCACGTGGTGGA,-0.293
11,GTTTTCACGTGTATAA,0.711
12,TTGAGCACGTGATCGG,-0.502
13,GTGCCCACGTGGGTGG,-0.962
14,GCAGTCACGTGAGTTT,1.21
15,GGGGCCACGTGTGCGT,-0.628
16,TTTAGCACGTGTTAAC,0
17,GGATGCACGTGAGGTG,1.51
18,TCGTACACGTGTTGAG,0.126
19,TGGTTCACGTGCGTGG,1.05
20,CGGGGCACGTGTAGCT,-0.669
21,TGTGTCACGTGATAGG,0.92
22,GTTGTCACGTGCGTGA,0.251
23,GGAATCACGTGTGAGT,0.628
24,GAGGCCACGTGAGTGG,0.92
25,TGGTGCACGTGGCGAC,-0.544
26,GTGAGCACGTGATCGT,0.46

row,Sequence,relative binding free energy [kJ/mol]
1,ATGTTCACGTGTCGGA,1.46
2,AGAGACACGTGGGGTC,-0.795
3,AGTCGCACGTGTAGTG,0.167
4,GTAGTCACGTGGGGTA,-0.628
5,TTGTGCACGTGAGGGT,1.13
6,TTGGACACGTGGATGG,0.544
7,ATGATCACGTGACGTG,0.753
8,ACTGGCACGTGGGGGT,-1.51
9,ACGGGCACGTGTGTCT,-0.251
10,GATTCCACGTGGATGT,0.837
11,ATATTCACGTGGCGTA,0.377
12,GGGGCCACGTGTTAAG,0.335
13,GGTAACACGTGTGTCT,-0.126
14,CTTTGCACGTGGGGCG,-0.628
15,ATTGTCACGTGGGATA,-0.126
16,ATATCCACGTGGGGTT,-0.167
17,CAGTGCACGTGTCTGT,0.0418
18,CGGGTCACGTGTGAGC,0.711
19,AAGGGCACGTGATGTA,-0.126
20,GGGGACACGTGCATTG,-0.418
21,AGTCGCACGTGAGGTT,0.711
22,GGCTGCACGTGCTAGG,-0.167
23,GTTTTCACGTGTATTA,1.17
24,GTCTTCACGTGAGTTG,1.05
25,TTAATCACGTGTCGTT,1.17
26,CGGGGCACGTGGTTCG,-0.167

row,Sequence,relative binding free energy [kJ/mol]
1,TAGGTCACGTGTCTGG,0.711
2,GGGGGCACGTGCGTGC,-0.962
3,ATATGCACGTGATAAT,0.0837
4,TGCGTCACGTGAGGAC,1.46
5,AGGGGCACGTGAATCG,0.962
6,CTGAGCACGTGTATGT,-0.251
7,GTGCGCACGTGAGTGT,0.251
8,GGGCGCACGTGTGAGC,0.418
9,AGGTACACGTGGAGCA,0.377
10,GCTGTCACGTGGGCTT,0.0418
11,TTATTCACGTGGTTGG,1.3
12,AGGGGCACGTGCTAGT,-1.05
13,TGGCGCACGTGTTATG,0.418
14,GTCTGCACGTGATGTT,1.05
15,TGCTCCACGTGTGGGG,-0.335
16,GACAACACGTGTTTGG,0.669
17,ATGGGCACGTGGTATT,-0.795
18,CCTTGCACGTGGTGTG,-0.879
19,AGCGGCACGTGTAGCG,0
20,TAATTCACGTGGATAT,1.13
21,GAACGCACGTGTGTTT,0.418
22,GTGGGCACGTGTACGC,0.126
23,GGGTTCACGTGAAAGG,1.88
24,GGGTACACGTGCCGTG,-0.126
25,CGGTTCACGTGAAATT,2.18
26,TGGTACACGTGGAGGG,0

row,Sequence,relative binding free energy [kJ/mol]
1,AGAGGCACGTGTGGGA,-0.0418
2,GGTGGCACGTGAGGAT,1
3,TGGTGCACGTGGTATT,-0.377
4,TGTGGCACGTGCTGGC,-0.628
5,AACATCACGTGTGGGA,0.837
6,AGTCTCACGTGTGATT,0.962
7,TTTAGCACGTGATCTA,-0.126
8,CTTGGCACGTGTTTTT,-0.0837
9,ATTGGCACGTGGCATT,-0.628
10,AAGGGCACGTGATTTA,0.0418
11,ATTAACACGTGTGGAT,-0.0837
12,GGTGTCACGTGCGTAA,0.0837
13,GCGGGCACGTGTTTAG,0.0837
14,ACTTGCACGTGATGGG,1.09
15,ATGTGCACGTGGCTGC,-0.167
16,ATTAACACGTGAGGGA,1.17
17,GCTTACACGTGGTAAG,1
18,GTATTCACGTGCGAGG,0.669
19,AATTTCACGTGGTGAG,0.586
20,GCTGGCACGTGGTATG,-0.962
21,GTATTCACGTGTGTTC,0.628
22,GTTGTCACGTGGGCAT,-0.0837
23,TCAATCACGTGAGGTT,1.13
24,AGTGTCACGTGGATGA,-0.0837
25,TTAAACACGTGTCAGT,0.753
26,ATGGGCACGTGGATCG,-0.669

row,Sequence,relative binding free energy [kJ/mol]
1,AGCTTCACGTGTGTTT,1
2,ATACTCACGTGTAGGT,0.251
3,AGAGTCACGTGTGCTA,0.795
4,ATATGCACGTGGTCGT,-0.46
5,ACTGCCACGTGTGGGT,-0.377
6,GGGACCACGTGTGGGA,-0.293
7,TCGGGCACGTGTGATT,0.0837
8,TAGTGCACGTGATTGA,0.293
9,TGGGACACGTGGTCAA,-0.126
10,TGGGTCACGTGTTGTA,0.92
11,GCGTGCACGTGGTGAT,0
12,TCATACACGTGAGGGG,1.09
13,AGTGACACGTGCCTGG,-0.0837
14,GTTTCCACGTGGGATA,0.293
15,TGGGCCACGTGCGAGG,-0.669
16,GTGGACACGTGGGGCA,-1.05
17,GGATTCACGTGGGTTA,1.26
18,TCTTGCACGTGAAGAT,1.55
19,CGGGACACGTGGGGGC,-0.669
20,GTAGCCACGTGGGAGG,-0.753
21,AGAGTCACGTGGTATA,-0.293
22,TTAAGCACGTGTGGGG,0

# Source: the BET-seq Pho4 binding data (Le et al. 2018)
